For experiment [1], the target named is EGFRvIII on U87-EGFRvIII cells (human, UniProt P00533). Put plainly: cell-based or functional assay.
The next experiment concerns the target EGFR on the cell surface (human, UniProt P00533). Put plainly: cell-based or functional assay.

B1: chimeric antigen receptor Y022-28BBZ (scFv(EGFR)-CD28a-CD28b-CD137-CD3 zeta) on T lymphocytes (other)
chain: DIQMTQSPSSLSASVGDRVTITCHASQDINVNIGWLQQKPGKAFKGLIYHGKNLEDGVPSRFSGSGSGTDFTLTISSLQPEDFATYYCNQYENIPLTFGQGTKVEIKRGGGGSGGGGSGGGGSDVQLVESGGGLVQPGGSLRLSCAVSGYSITSDYAWNWIRQAPGKGLEWLGYISYRGRTQYNPSLKSRISITRDNSKNTFFLQLNSLRAEDTAVYYCARMGKNWDYWGQGTLVTVSSTTTPAPRPPTPAPTIASQPLSLRPEACRPAAGGAVHTRGLDFACDFWVLVVVGGVLACYSLLVTVAFIIFWVRSKRSRLLHSDYMNMTPRRPGPTRKHYQPYAPPRDFAAYRSKRGRKKLLYIFKQPFMRPVQTTQEEDGCSCRFPEEEEGGCEL[about 120 residues skipped]
Turning to B1, in experiment [1], the “Cytotoxicity % (LDH release, 18 h), U87-EGFRvIII target cells, effector target ratio 1:1” value came out at 42%; the “Cytotoxicity % (LDH release, 18 h), U87-EGFRvIII target cells, effector target ratio 1:3” value worked out at 19%; the “Cytotoxicity % (LDH release, 18 h), U87-EGFRvIII target cells, effector target ratio 3:1” value is 73%. In addition, in the experiment with EGFR on the cell surface, the “Cytotoxicity % (LDH release, 18 h), A431 target cells, effector target ratio 1:1” value worked out at 37%; the “Cytotoxicity % (LDH release, 18 h), A431 target cells, effector target ratio 1:3” value was determined as 12%; the “Cytotoxicity % (LDH release, 18 h), A431 target cells, effector target ratio 3:1” value stood at 67%; the “Cytotoxicity % (LDH release, 18 h), CAL27 target cells, effector target ratio 1:1” value is 49%. In the experiment with EGFR on the cell surface, the “Cytotoxicity % (LDH release, 18 h), CAL27 target cells, effector target ratio 1:3” value was 15%; the “Cytotoxicity % (LDH release, 18 h), CAL27 target cells, effector target ratio 3:1” value came out at 70%; the “Cytotoxicity % (LDH release, 18 h), K2 target cells, effector target ratio 1:1” value was 2%; the “Cytotoxicity % (LDH release, 18 h), K2 target cells, effector target ratio 1:3” value came out at 0.3%. In addition, in the experiment with EGFR on the cell surface, the “Cytotoxicity % (LDH release, 18 h), K2 target cells, effector target ratio 3:1” value amounted to 11%; the “Cytotoxicity % (LDH release, 18 h), MDA-MB-468 target cells, effector target ratio 1:1” value stood at 45%; the “Cytotoxicity % (LDH release, 18 h), MDA-MB-468 target cells, effector target ratio 1:3” value worked out at 14%; the “Cytotoxicity % (LDH release, 18 h), MDA-MB-468 target cells, effector target ratio 3:1” value came to 57%. Moreover, in the experiment with EGFR on the cell surface, the “Cytotoxicity % (LDH release, 18 h), RWPE-1 target cells, effector target ratio 1:1” value came out at 7%; the “Cytotoxicity % (LDH release, 18 h), RWPE-1 target cells, effector target ratio 1:3” value was 3%; the “Cytotoxicity % (LDH release, 18 h), RWPE-1 target cells, effector target ratio 3:1” value came out at 12%; the “Cytotoxicity % (LDH release, 18 h), U87-EGFR target cells, effector target ratio 1:1” value came to 17%. Further, in the experiment with EGFR on the cell surface, the “Cytotoxicity % (LDH release, 18 h), U87-EGFR target cells, effector target ratio 1:3” value turned out to be 6%; the “Cytotoxicity % (LDH release, 18 h), U87-EGFR target cells, effector target ratio 3:1” value worked out at 35%; the “Cytotoxicity % (LDH release, 18 h), U87 target cells, effector target ratio 1:1” value worked out at 4%; the “Cytotoxicity % (LDH release, 18 h), U87 target cells, effector target ratio 1:3” value is 5%. In addition, the “Cytotoxicity % (LDH release, 18 h), U87 target cells, effector target ratio 3:1” value with EGFR on the cell surface turned out to be 2%.

B2: chimeric antigen receptor Y022-28Z (scFv(EGFR)-CD28a-CD28b-CD3 zeta) on T lymphocytes (other)
chain: DIQMTQSPSSLSASVGDRVTITCHASQDINVNIGWLQQKPGKAFKGLIYHGKNLEDGVPSRFSGSGSGTDFTLTISSLQPEDFATYYCNQYENIPLTFGQGTKVEIKRGGGGSGGGGSGGGGSDVQLVESGGGLVQPGGSLRLSCAVSGYSITSDYAWNWIRQAPGKGLEWLGYISYRGRTQYNPSLKSRISITRDNSKNTFFLQLNSLRAEDTAVYYCARMGKNWDYWGQGTLVTVSSTTTPAPRPPTPAPTIASQPLSLRPEACRPAAGGAVHTRGLDFACDFWVLVVVGGVLACYSLLVTVAFIIFWVRSKRSRLLHSDYMNMTPRRPGPTRKHYQPYAPPRDFAAYRS[about 120 residues skipped]
As to B2, in experiment [1], the “Cytotoxicity % (LDH release, 18 h), U87-EGFRvIII target cells, effector target ratio 1:1” value came out at 31%; the “Cytotoxicity % (LDH release, 18 h), U87-EGFRvIII target cells, effector target ratio 1:3” value is 9%; the “Cytotoxicity % (LDH release, 18 h), U87-EGFRvIII target cells, effector target ratio 3:1” value was 65%. In the experiment with EGFR on the cell surface, the “Cytotoxicity % (LDH release, 18 h), A431 target cells, effector target ratio 1:1” value worked out at 24%; the “Cytotoxicity % (LDH release, 18 h), A431 target cells, effector target ratio 1:3” value was determined as 5%; the “Cytotoxicity % (LDH release, 18 h), A431 target cells, effector target ratio 3:1” value was found to be 45%; the “Cytotoxicity % (LDH release, 18 h), CAL27 target cells, effector target ratio 1:1” value was 23%. Besides, in the experiment with EGFR on the cell surface, the “Cytotoxicity % (LDH release, 18 h), CAL27 target cells, effector target ratio 1:3” value came out at 8%; the “Cytotoxicity % (LDH release, 18 h), CAL27 target cells, effector target ratio 3:1” value was determined as 50%; the “Cytotoxicity % (LDH release, 18 h), K2 target cells, effector target ratio 1:1” value came out at 0.6%; the “Cytotoxicity % (LDH release, 18 h), K2 target cells, effector target ratio 1:3” value was 2%. For the same molecule, in the experiment with EGFR on the cell surface, the “Cytotoxicity % (LDH release, 18 h), K2 target cells, effector target ratio 3:1” value came to 3%; the “Cytotoxicity % (LDH release, 18 h), MDA-MB-468 target cells, effector target ratio 1:1” value was found to be 23%; the “Cytotoxicity % (LDH release, 18 h), MDA-MB-468 target cells, effector target ratio 1:3” value came to 1%; the “Cytotoxicity % (LDH release, 18 h), MDA-MB-468 target cells, effector target ratio 3:1” value is 41%. Further, in the experiment with EGFR on the cell surface, the “Cytotoxicity % (LDH release, 18 h), RWPE-1 target cells, effector target ratio 1:1” value came out at 6%; the “Cytotoxicity % (LDH release, 18 h), RWPE-1 target cells, effector target ratio 1:3” value was 4%; the “Cytotoxicity % (LDH release, 18 h), RWPE-1 target cells, effector target ratio 3:1” value was determined as 8%; the “Cytotoxicity % (LDH release, 18 h), U87-EGFR target cells, effector target ratio 1:1” value stood at 16%. Moreover, in the experiment with EGFR on the cell surface, the “Cytotoxicity % (LDH release, 18 h), U87-EGFR target cells, effector target ratio 1:3” value is 7%; the “Cytotoxicity % (LDH release, 18 h), U87-EGFR target cells, effector target ratio 3:1” value came out at 25%; the “Cytotoxicity % (LDH release, 18 h), U87 target cells, effector target ratio 1:1” value worked out at 3%; the “Cytotoxicity % (LDH release, 18 h), U87 target cells, effector target ratio 1:3” value is 1%. Also, in the experiment with EGFR on the cell surface, the “Cytotoxicity % (LDH release, 18 h), U87 target cells, effector target ratio 3:1” value came out at 4%.
